The other results are listed elsewhere or left out. Values were computed here from the reads of four pooled replicates and scatter widely.
These sequences were tested against T1, Pho4 (S. cerevisiae) (UniProt P07270) (assay: relative binding free energy (BET-seq); higher = weaker binding). Conditions: reference: library average.
T1 sequence: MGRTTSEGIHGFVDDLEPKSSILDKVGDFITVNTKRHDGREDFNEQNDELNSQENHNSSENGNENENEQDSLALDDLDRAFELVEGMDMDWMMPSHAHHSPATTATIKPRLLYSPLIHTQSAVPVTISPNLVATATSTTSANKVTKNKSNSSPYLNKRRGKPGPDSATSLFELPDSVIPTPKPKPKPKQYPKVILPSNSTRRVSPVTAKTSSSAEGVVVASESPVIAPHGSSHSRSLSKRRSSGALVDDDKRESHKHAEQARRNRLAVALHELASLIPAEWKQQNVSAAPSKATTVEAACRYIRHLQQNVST

| Sequence | relative binding free energy [kcal/mol] |
| --- | --- |
| GAACGCACGTGATGGG | 0.06 |
| CGTTGCACGTGGGTCA | -0.07 |
| AGTGGCACGTGGTAAA | -0.21 |
| TTGCACACGTGAGGAG | 0.4 |
| TTGCCCACGTGGGTTG | -0.26 |
| ATGCACACGTGGTGGG | -0.12 |
| TTCTTCACGTGAATTT | 0.35 |
| TCATGCACGTGGGAGT | -0.11 |
| CTGGGCACGTGGGGTT | -0.25 |
| AGATACACGTGGGGAT | -0.19 |
| TTGTTCACGTGCTCGA | 0.2 |
| GCAGGCACGTGGGGGA | -0.16 |
| GTCGGCACGTGTTAAG | -0.01 |
| TCAGGCACGTGCGAGG | -0.08 |
| AGGGTCACGTGAATGG | 0.17 |
| TTGTGCACGTGATATA | 0.13 |
| TTGTACACGTGTGACT | 0.07 |
| TTTGTCACGTGAGAAT | 0.34 |
| CACGGCACGTGGGGGC | -0.27 |
| GGGTTCACGTGACGTA | 0.42 |
| ATGTTCACGTGGGAGC | 0.14 |
| AGGGGCACGTGCTGGT | -0.32 |
| GGTAGCACGTGTTTAT | -0.03 |

| Sequence | relative binding free energy [kcal/mol] |
| --- | --- |
| TGGTTCACGTGTTCTA | 0.29 |
| TGAATCACGTGGTTTA | 0.17 |
| GGTATCACGTGATTTA | 0.33 |
| TATTGCACGTGAGATG | 0.12 |
| GGTGTCACGTGCAGGT | 0.14 |
| ATTTACACGTGGTTGC | 0.02 |
| GTGGACACGTGGTCCG | -0.03 |
| GGGAACACGTGGGGGG | -0.09 |
| GTGCGCACGTGGTGGA | -0.09 |
| ACCGGCACGTGTTGTG | -0.04 |
| TATTTCACGTGTCAAT | 0.24 |
| GTTGGCACGTGGAAAT | 0.14 |
| GTTTTCACGTGGATGG | 0.27 |
| GGATGCACGTGCGTAG | -0.16 |
| TGAGACACGTGGGCTG | -0.12 |
| TAGGGCACGTGGCTGA | -0.26 |
| TGTTTCACGTGGCGCG | 0.27 |
| GATAGCACGTGTGGAT | 0.11 |
| GCTTGCACGTGTATGT | 0.03 |
| TACTTCACGTGCGTGT | 0.35 |
| TTGGTCACGTGACATA | 0.14 |
| TGAACCACGTGTGAGG | 0.04 |
| ATTGGCACGTGCGGTT | -0.08 |

| Sequence | relative binding free energy [kcal/mol] |
| --- | --- |
| GGGTACACGTGAAGGG | 0.33 |
| ATGTGCACGTGTTCTA | -0.14 |
| CATAACACGTGGTGGA | 0 |
| CTGATCACGTGCGGGT | 0.23 |
| CGTGTCACGTGTGTCG | 0.05 |
| AGGGGCACGTGCGAAT | -0.16 |
| CGTGGCACGTGTGCGC | -0.07 |
| GAGTTCACGTGTGATG | 0.5 |
| GTTCGCACGTGTTAGT | 0.12 |
| GTTGTCACGTGATTTG | 0.4 |
| TAACTCACGTGTTAGT | 0.14 |
| TTGATCACGTGGTACA | 0.14 |
| TCAGTCACGTGAGTGG | 0.32 |
| TGATTCACGTGTTGTC | 0.32 |
| GGAGGCACGTGCTGAG | -0.16 |
| ATGCGCACGTGTTGTA | -0.01 |
| GTGGGCACGTGCTGTG | -0.03 |
| CCGGTCACGTGGGGAT | 0 |
| TCATTCACGTGCGGTG | 0.29 |
| ACCGACACGTGGGTGG | 0.07 |
| ATGAGCACGTGGACGG | -0.08 |
| CATGTCACGTGTGGAT | 0.15 |
| GGTCTCACGTGTGGCT | 0.24 |

| Sequence | relative binding free energy [kcal/mol] |
| --- | --- |
| CAATGCACGTGGTGGC | -0.07 |
| TTGCACACGTGGCTTG | 0 |
| AGTAACACGTGGGAAA | 0.06 |
| AAGGTCACGTGATGTT | 0.24 |
| TGTAACACGTGGTAAA | 0.01 |
| TGTGGCACGTGGAAGT | 0.02 |
| GTGTCCACGTGTGCTT | 0.04 |
| GATGGCACGTGCAGGT | -0.07 |
| CGTTTCACGTGGGAAT | 0.35 |
| TTTGACACGTGGTGCC | -0.08 |
| TGGAACACGTGGGTTT | 0.01 |
| AATGTCACGTGTGGAC | 0.19 |
| TGACACACGTGGGGGG | -0.09 |
| GTGTTCACGTGACTAG | 0.34 |
| AGTTGCACGTGGTGAC | -0.19 |
| CTTGGCACGTGGTTTG | -0.21 |
| TTAATCACGTGTGAGC | 0.31 |
| AGCTTCACGTGGGGTC | 0.21 |
| TGGTACACGTGTTAGC | 0.14 |
| ATTATCACGTGGTACT | 0.03 |
| TGGTGCACGTGTGCGT | -0.11 |
| CGGATCACGTGGTAGT | 0.11 |
| AGCTTCACGTGGGGCT | 0.07 |

| Sequence | relative binding free energy [kcal/mol] |
| --- | --- |
| CATTGCACGTGAGGGT | 0.16 |
| TAAGGCACGTGGGTAT | -0.07 |
| TCATTCACGTGGCGTT | 0.23 |
| TGGCTCACGTGTTAGG | 0.3 |
| ATAGGCACGTGTACTG | -0.13 |
| GATGACACGTGGTGAG | 0.06 |
| CTGTTCACGTGATTTA | 0.33 |
| GCTTGCACGTGTCGTG | -0.08 |
| AATAACACGTGTGTTA | -0.03 |
| TTTATCACGTGCTATA | 0.11 |
| AAAGGCACGTGTTTAT | -0.09 |
| ATGGACACGTGTGCGT | -0.27 |
| TATAACACGTGTTCGT | -0.08 |
| GAGCACACGTGGTGTA | 0.09 |
| TGTTCCACGTGGTTGG | 0.03 |
| TAAGTCACGTGAGTGG | 0.31 |
| ATGGACACGTGTTTAG | -0.02 |
| TGTTGCACGTGTGAAG | 0.09 |
| TATGACACGTGTGGTA | 0.14 |
| GGGGACACGTGTTTCA | 0.12 |
| TTAATCACGTGTTGGC | 0.17 |
| TGGAACACGTGGGCTT | -0.15 |
| GGGTACACGTGTGTTA | 0.09 |

Reference: the BET-seq Pho4 binding data (Le et al. 2018)
